Values of other authors as cited in article PMC11006913.
The other results are listed elsewhere or left out.

biological target: PROP1 R99Q (Homo sapiens) (UniProt O75360); details: PBM; conditions not shown; double strand, one strand shown; scale: upbm affinity estimate (log intensity, higher = more binding, comparable within an allelic series)
Sequence of UniProt O75360 (O75360 56-141 R99Q): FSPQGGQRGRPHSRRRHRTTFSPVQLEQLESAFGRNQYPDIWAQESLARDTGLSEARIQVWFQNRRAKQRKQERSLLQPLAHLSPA

Sequence | binding signal
CGAGAGGC [8-mer CGAGAGGC] | 10.9
TGGGGGAA [8-mer TGGGGGAA] | 11
CGGCGTGC [8-mer CGGCGTGC] | 10.9
